Measurements reported in PubChem BioAssay AID504333 (National Center for Advancing Translational Sciences (NCATS), 2011).
About 16,000 (4.4%) of roughly 360,000 compounds were called active. This list was built around the results that the source calls inconclusive (neither active nor inactive); the mix of calls is not that of the screen. Calls follow the shape of the dose curve; as a rule, active = well fitted inhibition curve with a large enough effect; inconclusive = small, poorly fitted or top-dose-only effect; inactive = no such curve, though single readings can be large or run the other way. Where the call is inconclusive, the potency comes from a doubtful curve fit.

Each compound was assayed against Bromodomain adjacent to zinc finger domain protein 2B (Homo sapiens) (UniProt Q9UIF8) (assay: qHTS Assay for Inhibitors of BAZ2B). Settings: AlphaScreen BAZ2B-H3K14Ac peptide displacement; series mostly up to 114 µM.
Procedure, shortened: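 In this displacement format the biotinylated H3(5-23) peptide acetylated at Lys14 serves as ligand at 50 nM, with BAZ2B at 50 nM in PBS pH 7.4 containing 0.01% Tween-20. Donor and acceptor beads are 10 ug/mL final.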
Also: nearly all actives have a fitted effect of over 60% in size.
Potency is read from the fitted curve at half-maximal effect; tags tell the direction and shape of the fitted curve.

UniProt Q9UIF8, sequence (Q9UIF8 whole entry, looked up, the tested form may be a part): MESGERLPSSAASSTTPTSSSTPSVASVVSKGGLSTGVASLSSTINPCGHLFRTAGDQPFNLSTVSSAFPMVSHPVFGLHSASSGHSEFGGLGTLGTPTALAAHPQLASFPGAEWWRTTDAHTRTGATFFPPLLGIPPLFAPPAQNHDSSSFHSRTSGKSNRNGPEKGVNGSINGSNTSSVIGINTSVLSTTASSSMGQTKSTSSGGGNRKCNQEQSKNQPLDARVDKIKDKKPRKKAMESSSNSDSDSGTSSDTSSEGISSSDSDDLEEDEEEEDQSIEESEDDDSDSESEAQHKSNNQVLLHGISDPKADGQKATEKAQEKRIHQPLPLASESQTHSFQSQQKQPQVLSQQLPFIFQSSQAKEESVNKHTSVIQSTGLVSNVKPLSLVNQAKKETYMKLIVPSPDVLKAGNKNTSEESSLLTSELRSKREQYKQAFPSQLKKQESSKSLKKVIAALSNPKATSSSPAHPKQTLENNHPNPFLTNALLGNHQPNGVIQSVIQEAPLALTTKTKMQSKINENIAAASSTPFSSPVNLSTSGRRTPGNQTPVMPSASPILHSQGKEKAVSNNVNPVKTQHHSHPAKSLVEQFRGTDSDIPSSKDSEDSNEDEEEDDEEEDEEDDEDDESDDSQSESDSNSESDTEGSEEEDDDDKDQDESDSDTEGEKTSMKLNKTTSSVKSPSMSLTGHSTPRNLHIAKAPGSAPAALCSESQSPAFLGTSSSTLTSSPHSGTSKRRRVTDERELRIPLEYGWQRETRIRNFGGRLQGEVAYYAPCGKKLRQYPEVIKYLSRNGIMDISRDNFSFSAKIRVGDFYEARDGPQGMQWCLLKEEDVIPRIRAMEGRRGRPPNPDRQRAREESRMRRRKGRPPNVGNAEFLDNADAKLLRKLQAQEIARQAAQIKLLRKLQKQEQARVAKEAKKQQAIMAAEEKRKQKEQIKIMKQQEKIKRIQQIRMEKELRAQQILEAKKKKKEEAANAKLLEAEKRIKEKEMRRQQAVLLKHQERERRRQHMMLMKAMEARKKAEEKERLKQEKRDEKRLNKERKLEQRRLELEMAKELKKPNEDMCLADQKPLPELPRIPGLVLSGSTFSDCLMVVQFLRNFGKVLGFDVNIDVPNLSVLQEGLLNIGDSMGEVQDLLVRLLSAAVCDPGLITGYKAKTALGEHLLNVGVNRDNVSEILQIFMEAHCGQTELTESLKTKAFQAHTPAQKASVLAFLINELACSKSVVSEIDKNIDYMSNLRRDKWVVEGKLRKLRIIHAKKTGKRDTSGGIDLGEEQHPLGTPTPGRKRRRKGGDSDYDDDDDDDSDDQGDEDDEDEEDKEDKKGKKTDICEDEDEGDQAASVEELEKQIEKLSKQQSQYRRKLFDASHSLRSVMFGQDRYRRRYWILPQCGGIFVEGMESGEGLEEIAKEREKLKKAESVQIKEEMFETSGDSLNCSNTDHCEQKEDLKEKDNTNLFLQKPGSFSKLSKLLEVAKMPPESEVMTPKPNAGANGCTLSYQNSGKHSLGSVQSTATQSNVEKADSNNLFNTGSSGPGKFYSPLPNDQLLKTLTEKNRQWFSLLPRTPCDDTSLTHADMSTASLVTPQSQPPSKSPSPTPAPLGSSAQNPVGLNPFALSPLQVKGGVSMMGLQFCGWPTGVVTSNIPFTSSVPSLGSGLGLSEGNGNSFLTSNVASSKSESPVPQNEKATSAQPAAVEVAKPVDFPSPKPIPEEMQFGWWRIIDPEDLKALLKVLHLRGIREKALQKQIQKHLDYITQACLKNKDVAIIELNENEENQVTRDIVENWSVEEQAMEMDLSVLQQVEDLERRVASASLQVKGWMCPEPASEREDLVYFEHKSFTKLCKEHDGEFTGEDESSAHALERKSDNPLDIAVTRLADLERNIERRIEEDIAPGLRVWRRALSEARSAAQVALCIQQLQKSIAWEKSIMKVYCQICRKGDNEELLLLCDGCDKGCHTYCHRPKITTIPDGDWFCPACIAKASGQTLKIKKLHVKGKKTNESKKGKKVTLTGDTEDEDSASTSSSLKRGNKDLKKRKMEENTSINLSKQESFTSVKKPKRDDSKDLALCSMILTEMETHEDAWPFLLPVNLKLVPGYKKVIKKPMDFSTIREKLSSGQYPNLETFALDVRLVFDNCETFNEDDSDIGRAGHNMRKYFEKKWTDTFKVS

Row | SMILES | Potency
1 | Cn1cccc1CC(=O)N/N=C/c1ccc(Cl)cc1 | inconclusive: 79.4 µM [inhibitor, single point]
2 | COc1ccc(-c2ccc(C(=O)O)c(=O)[nH]2)cc1 | inconclusive: 89.1 µM [inhibitor, single point]
3 | Cc1ccc(NC(=O)c2sc(-n3nc(C)c(CCC(C)C)c3C)nc2C)cc1C | inconclusive: 89.1 µM [inhibitor, single point]
4 | CCOc1ccccc1/C=N/NC(=O)C[n+]1ccccc1 | inconclusive: 89.1 µM [inhibitor, single point]
5 | O=C(Nc1ccc2c(c1)OCO2)C1CCN(c2ccc(S(=O)(=O)N3CCOCC3)cc2)CC1 | inconclusive: 89.1 µM [inhibitor, single point]
6 | CC1CCCC(NC(=O)C2CCN(S(=O)(=O)N3CCCCCC3)CC2)C1C (stereo unspecified) | inactive
7 | COc1nccnc1NS(=O)(=O)c1ccc(NCc2cc(Br)ccc2O)cc1 | inconclusive: 44.7 µM [inhibitor, partial curve]
8 | COc1ccccc1-n1cc(-c2ccc(C)cc2)[nH]c1=S | inconclusive: 35.5 µM [inhibitor, partial curve]
9 | Cc1ccsc1C(=O)N(Cc1nnc(-c2ccccc2Cl)o1)C1CC1 | inactive
10 | O=C(NNS(=O)(=O)c1ccc(F)cc1)c1cnccn1 | active: 79.4 µM
11 | COc1ccc(NC(=S)N(Cc2ccc(C)cc2)Cc2ccccn2)cc1 | inconclusive: 28.2 µM [inhibitor, full curve]
12 | CCOC(=O)C1=C(C)N(CCCCCC(=O)O)C(=O)NC1c1ccccc1Cl (stereo unspecified) | inconclusive: 56.2 µM [inhibitor, partial curve, poor fit]
13 | [O-]/C(=C(\C(=S)NCc1ccco1)[n+]1ccccc1)c1ccccc1Br | inconclusive: 89.1 µM [inhibitor, single point]
14 | Cc1cccc(N(C(=O)c2snc(C(N)=O)c2N)C(C(=O)NCC2CCCO2)c2ccc(N(C)C)cc2)c1C (stereo unspecified) | active: 28.2 µM
15 | CN(C)S(=O)(=O)c1cccc(NC(=O)c2cc(=O)[nH]c(=O)[nH]2)c1 | inconclusive: 79.4 µM [inhibitor, single point]
16 | CC(=O)c1ccc(Sc2ccccc2)c([N+](=O)[O-])c1 | inconclusive: 39.8 µM [inhibitor, partial curve]
17 | Cc1ccc(C)c(N2C(=O)CC(Cc3ccccc3)C2=O)c1 (stereo unspecified) | inactive
18 | CC(=O)c1ccc(C(=O)N(CCCN(C)C)c2nc3c(C)c(C)ccc3s2)cc1 | inconclusive: 70.8 µM [inhibitor, single point]
19 | COc1cccc(C2=CC(c3ccc(OC)c(OC)c3OC)n3nnnc3N2)c1 (stereo unspecified) | inconclusive: 89.1 µM [inhibitor, single point]
20 | COc1ccc(C(=O)COC(=O)c2cccnc2Cl)c(OC)c1 | active: 50.1 µM
21 | Cc1ccc(OCCn2c(CNc3cccc(C)c3)nc3ccccc32)cc1 | inconclusive: 22.4 µM [inhibitor, full curve]
22 | Cc1cccc(NC(=O)CSCc2nc3c(nnn3Cc3ccc(F)cc3)c(=O)[nH]2)c1C | inconclusive: 89.1 µM [inhibitor, single point]
23 | O=C(c1ccc(COc2ccccc2Br)cc1)N1CCCCCC1 | inactive
24 | Cc1ccc(C)c(N2CCN(C(=O)c3ccc(CS(=O)Cc4cccc(Cl)c4)o3)CC2)c1 (stereo unspecified) | inconclusive: 39.8 µM [inhibitor, full curve]

Row | SMILES | Potency
25 | CN1C/C(=C/c2ccsc2)C(=O)/C(=C/c2ccsc2)C1 | inconclusive: 70.8 µM [inhibitor, single point]
26 | Cc1ccc(C)c(S(=O)(=O)N2CCCOC2CNC(=O)C(=O)NCCc2ccco2)c1 (stereo unspecified) | inconclusive: 79.4 µM [inhibitor, single point]
27 | CCOc1ccc(N=Nc2c(N)[nH][nH]c2=O)cc1 | inconclusive: 89.1 µM [inhibitor, single point]
28 | CCN(CC)C(=O)c1sc2nc(-c3cccs3)cc(-c3cccs3)c2c1N | inactive
29 | Cc1ccsc1/C=N/Nc1ccc(F)cc1F | inconclusive: 50.1 µM [inhibitor, partial curve]
30 | N#Cc1ccccc1OCC(=O)N1CCN(C(=O)c2ccco2)CC1 | inactive
31 | CCCCCn1c(=O)[nH]c2cc(C(=O)NCc3ccccn3)ccc2c1=O | active: 79.4 µM
32 | COC(=O)C(NC(=O)COc1ccccc1)(Nc1nc2c(s1)CCCC2)C(F)(F)F (stereo unspecified) | inconclusive: 79.4 µM [inhibitor, single point]
33 | CN1/C(=C\C=C2/SC(=S)NC2=O)C(C)(C)c2ccccc21 | active: 7.94 µM
34 | C=C(C)CN(CC)C(=O)CSc1ccc(S(=O)(=O)N2CCN(C)CC2)cn1 | inactive
35 | O=C(NNC(=O)c1ccccc1-n1cccc1)c1ccc(Cl)c(Cl)c1 | inconclusive: 89.1 µM [inhibitor, single point]
36 | Cc1ccc(OCC(=O)c2cc(C)n(C3CC3)c2C)c([N+](=O)[O-])n1 | inconclusive: 70.8 µM [inhibitor, single point]
37 | COc1cc(NC(=O)CN(C)S(=O)(=O)c2ccc3[nH]c4c(c3c2)CCCC4)cc(OC)c1OC | inconclusive: 50.1 µM [inhibitor, partial curve]
38 | CC(/C=N/N1CCN(Cc2ccccc2)CC1)=C\c1ccccc1 | active: 50.1 µM
39 | Cc1cccc(S(=O)(=O)Nc2nc3ccccc3nc2Nc2ccc3c(c2)OCO3)c1 | inconclusive: 28.2 µM [inhibitor, full curve]
40 | Cc1ccc(N2NC(=O)/C(=C\c3cc4c(cc3[N+](=O)[O-])OCO4)C2=O)cc1C | active: 44.7 µM
41 | CCN(C(=O)c1cc2c(Cl)nc3ccccc3c2s1)c1cccc(Cl)c1 | inactive
42 | CC(C)(C)C1CC=C2C(C#N)=C(N)C(C#N)(C#N)C(c3cccs3)C2C1 (stereo unspecified) | inconclusive: 12.6 µM [inhibitor, full curve, poor fit]
43 | CCOC(=O)c1cc(NC(=O)COc2ccc([N+](=O)[O-])cc2)cc(C(=O)OCC)c1 | inactive
44 | CCN(C=NC1=NN(c2cccc(C(F)(F)F)c2)CC1)CC | active: 50.1 µM
45 | CSc1nc(N2CCN(c3ccccc3)CC2)cc(N2CCN(c3ccccc3)CC2)n1 | inconclusive: 89.1 µM [inhibitor, single point]
46 | Cc1c(-c2ccccc2)c(=O)oc2ccc(O)cc12 | inconclusive: 89.1 µM [inhibitor, single point]
47 | Cc1ccc(SCc2[nH]nc3c2C(c2ccco2)C(C#N)=C(N)O3)cc1 (stereo unspecified) | inconclusive: 50.1 µM [inhibitor, partial curve]
48 | Cc1ccc(S(=O)(=O)N/N=C2\C(=O)C3(C)CCC2C3(C)C)cc1 (stereo unspecified) | inconclusive: 89.1 µM [inhibitor, single point]

Row | SMILES | Potency
49 | Cc1ccc(C(=O)Nc2nc(-c3ccccn3)cs2)s1 | active: 20 µM
50 | CC(=O)c1c(O)cc(C)n(Nc2nc(C)cc(C)n2)c1=O | inconclusive: 89.1 µM [inhibitor, single point]
51 | CCOc1ccccc1Oc1cn[nH]c1-c1ccc(OCC(=O)NN)cc1O | inactive
52 | COc1cc2cncc(Cc3ccc(Cl)cc3)c2cc1OC | inactive
53 | CCCCc1c(O)nc(SCC(=O)O)[nH]c1=O | inactive
54 | C=CCn1c(N2CCN(c3ccc(OC)cc3)CC2)nc2c1c(=O)n(C)c(=O)n2C | inconclusive: 70.8 µM [inhibitor, single point]
55 | CC(=O)Nc1ccc2nc(C3CCCCC3)[nH]c2c1 | inconclusive: 89.1 µM [inhibitor, single point]
56 | CCOc1cc(N2CCOCC2)c(OCC)cc1NC(=O)c1cc(S(=O)(=O)N2CCOCC2)ccc1Cl | inconclusive: 79.4 µM [inhibitor, single point]
57 | O=C(Nc1ccccc1F)C(Cc1ccccc1)n1cccc1 (stereo unspecified) | inactive
58 | COc1ccc(-c2c3c(=O)n(C)c(=O)n(C)c3c3c(-c4ccccc4)nc4ccccc4n23)cc1 | inactive
59 | Cc1ccc(S(=O)(=O)N2CCC(N3CCC(C)CC3)CC2)cc1 | inconclusive: 79.4 µM [inhibitor, partial curve]
60 | COc1ccc(C(=O)NCCc2c[nH]c3ccccc23)cc1[N+](=O)[O-] | inconclusive: 44.7 µM [inhibitor, partial curve]
61 | Cc1ccc(C)c(NC(=O)C2CC=CCC2C(=O)O)c1 (stereo unspecified) | inactive
62 | O=C(CN1C(=O)c2ccccc2C1=O)NN1C(=O)c2ccccc2C1=O | inconclusive: 89.1 µM [inhibitor, single point]
63 | CCC(C)(C)C1CCC2(CC1)NC(=S)N(c1ccccc1)N2 (stereo unspecified) | inconclusive: 79.4 µM [inhibitor, single point]
64 | CCc1ccc(S(=O)(=O)c2nnn3c2nc(NCc2cccs2)c2sccc23)cc1 | inconclusive: 89.1 µM [inhibitor, single point]
65 | CC(C)(C)NC(=O)C(=O)NNC(=O)c1ccccc1Br | inconclusive: 89.1 µM [inhibitor, single point]
66 | Oc1ccc2ccccc2c1N=Nc1nccs1 | active: 2 µM
67 | COc1ccc(N2CCN(c3nc(Cl)nc(Nc4ccc(F)cc4)n3)CC2)cc1 | inconclusive: 79.4 µM [inhibitor, single point]
68 | CCc1ccccc1Nc1nn2c(=O)c3ccc(C(=O)NCc4cccs4)cc3nc2s1 | inconclusive: 79.4 µM [inhibitor, single point]
69 | Cc1ccc(NC(=O)N2CCC(=O)N2)cc1 | inactive
70 | Cc1ccc2[nH]c3c(c2c1)CCCC3=O | inconclusive: 3.55 µM [inhibitor, single point]
71 | CC(=O)Nc1nc(-c2ccc3c(c2)CC(C)N3C(=O)C2CC2)c(C)s1 (stereo unspecified) | inconclusive: 79.4 µM [inhibitor, single point]
